Data on 1 molecule can be found in patent US3951746A, “Antibiotics and process for their manufacture” (Schering Corporation, priority 1975, dated 1976).

Where only a bound is given, the exact number is not on record here.

The conditions of the data set: 0.1 molar buffers, pH range of 2 - 10. The source says: Further, it is stable to boiling for at least thirty (30) minutes in 0.1 molar buffers in the pH range of 2 - 10.

As to `CN[C@@H]1[C@@H](O)[C@@H](O[C@@H]2[C@@H](O)[C@H](O[C@H]3OC(C(C)N)=CC[C@H]3N)[C@@H](N)C[C@H]2N)OC[C@]1(C)O` (stereo partly shown) [Verdamicin I], the stable to boiling was ≥ 30 min.
